Source: PubChem BioAssay (Tox21)
“And” between values parts separate entries of the source, which are not always exact repeats. Equal entries are not always repeated. This list was built around the results that the source calls inconclusive (neither active nor inactive); the mix of calls is not that of the screen. Potencies beside an inconclusive call are fits to weak or partial responses and may not hold up. Some compounds were tested as several samples or in several runs, with calls that do not always agree. The source made the active and inactive calls. Calls come from the whole dose curve; as a rule, active = well fitted curve in the direction sought with a large enough effect in the repeat runs; inconclusive = weak or mixed curves; inactive = no such curve, though single readings can be large; an effect the other way counts as inactive or inconclusive. *1 amine or outer side, *2 acyl side, *3 side chain or, on linkers, in order; H or OH if unused. Where a SMILES comes first, the peptide text is derived from it. Bridges are numbered along the chain shown (N, C = ends). Roman numbers before positions name the chains, in order. [ ]: non-standard residue; d: D form. Actinocin(9to1) = Cc1c2oc3c(C)ccc(C(=O)[*:1])c3nc-2c(C(=O)[*:2])c(N)c1=O; NMeV = CN[C@H](C(=O)O)C(C)C; Sar = CNCC(=O)O

assay: qHTS RealTime-Glo MT Cell Viability Assay in HepG2 cells - 16 hour (AID 1224885); settings: RealTime-Glo luminescence; series mostly up to 76.8 µM; activity change, negative = cytotoxic: at the top concentration
Outline: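 HepG2 cells (600/well) were dispensed with RealTime-Glo reagents, incubated 5 h at 37 °C, then treated with compounds in DMSO for up to 40 h. Nonlytic NanoLuc luminescence reflecting viable cells was read at each stated time point.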
% is set by controls: 0 for no effect and ±100 for the full control effect; potency is the fitted concentration of half-maximal effect; tags give direction and shape of the fitted curve.
Note: nearly all actives have a fitted effect of over 50% in size.

| SMILES | Potency | activity change, negative = cytotoxic |
| --- | --- | --- |
| Cc1c2oc3c(C)ccc(C(=O)N[C@@H]4C(=O)N[C@H](C(C)C)C(=O)N5CCC[C@H]5C(=O)N(C)CC(=O)N(C)[C@@H](C(C)C)C(=O)O[C@@H]4C)c3nc-2c(C(=O)N[C@@H]2C(=O)N[C@H](C(C)C)C(=O)N3CCC[C@H]3C(=O)N(C)CC(=O)N(C)[C@@H](C(C)C)C(=O)O[C@@H]2C)c(N)c1=O (I: T[dV]P[Sar][NMeV] / II: T[dV]P[Sar][NMeV]; ester I:1-I:C, II:1-II:C; linker I:N-II:N via Actinocin(9to1)) | active: 8.47 µM and active: 9.52 µM | – |
| O=C(Nc1cccc(Cl)c1)OCC#CCCl | active: 43.6 µM | – |
| COc1cc(N)c(Cl)cc1C(=O)NC1CCN(CCCOc2ccc(F)cc2)CC1OC (stereo not drawn) | – | inactive: -16% [at 35.3 µM] |
| Oc1c(I)cc(Cl)c2cccnc12 | inconclusive: 54.9 µM [cytotoxic, partial curve, poor fit] | – |
| C[n+]1c2cc(N)ccc2cc2ccc(N)cc21 (tested in a mixture with another compound) | inconclusive: 6.74 µM [cytotoxic, partial curve] | – |
| CN1CCCN(C(c2ccccc2)c2ccc(Cl)cc2)CC1 (stereo not drawn) | inconclusive: 23.9 µM [cytotoxic, single point] | – |
| O=C(Nc1ccc(S(=O)(=O)N2CCOCC2)cc1)c1cc(Cl)ccc1NS(=O)(=O)c1ccc(Cl)s1 | inconclusive: 21.3 µM [cytotoxic, partial curve, poor fit] | – |
| O=c1[nH]sc2cc(Cl)ccc12 | inconclusive: 26.8 µM [cytotoxic, single point] | – |
| N=C1N=C(N)c2ccccc21 | inconclusive: 24.5 µM [cytotoxic, partial curve] | – |
| Cc1ncc(CO)c(CO)c1O | inactive | – |
| Nc1ccc(O)cc1 | active: 57.1 µM | – |
| O=C1OC(c2ccc(O)cc2)(c2ccc(O)cc2)c2ccccc21 | inconclusive: 61.6 µM [cytotoxic, single point] | – |
| C1CN(SSN2CCOCC2)CCO1 | inconclusive: 54.9 µM [cytotoxic, single point] | – |
| CCCCN(CCCC)CCC(O)c1cc2c(Cl)cc(Cl)cc2c2cc(C(F)(F)F)ccc12 (stereo not drawn) | inconclusive: 23.9 µM [cytotoxic, partial curve, poor fit] | – |
| O=[N+]([O-])c1cc(C2CCCCC2)c(O)c([N+](=O)[O-])c1 | inconclusive: 27.5 µM [cytotoxic, partial curve] | – |
| CN(C/C=C/c1ccccc1)Cc1cccc2ccccc12 | inconclusive: 10.7 µM [cytotoxic, partial curve] | – |

assay: qHTS RealTime-Glo MT Cell Viability Assay in HEK293 cells - 24 hour (AID 1224886); settings: RealTime-Glo luminescence; series mostly up to 76.8 µM; activity change, negative = cytotoxicity: at the top concentration; for activity change, negative = cytotoxicity: top concentration of the series differs between compounds
Outline: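 HEK293 cells seeded with NanoLuc/prosubstrate reagent, rested 5 h at 37 C, then dosed and kept at 37 C up to 40 h. Nonlytic real-time luminescence from viable cells read at 0, 8, 16, 24, 32 and 40 h.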

| SMILES | Potency | activity change, negative = cytotoxicity |
| --- | --- | --- |
| CN1C(=O)c2ccccc2C1=O | inconclusive: 49 µM [rising, single point] | – |
| CCOC(=O)c1ccc(I)cc1 | inconclusive: 35 µM [cytotoxic, partial curve] | – |
| COC(=O)Nc1nc2ccc(S(=O)c3ccccc3)cc2[nH]1 (stereo not drawn) | inconclusive: 9.76 µM [cytotoxic, full curve] | – |
| O=C=Nc1cccc(C(F)(F)F)c1 | inconclusive: 54.6 µM [cytotoxic, partial curve, poor fit] | – |
| CCOC(=O)c1ccc(C#Cc2ccc3c(c2)C(C)(C)CCS3)nc1 | inconclusive: 10.7 µM [cytotoxic, partial curve] | – |
| CC(C)c1nc(CN(C)C(=O)N[C@H](C(=O)N[C@@H](Cc2ccccc2)C[C@H](O)[C@H](Cc2ccccc2)NC(=O)OCc2cncs2)C(C)C)cs1 | active: 21.3 µM | – |
| CC(C)(C)C1CCC(CC2=C(O)c3ccccc3C(=O)C2=O)CC1 (stereo not drawn) | inconclusive: 7.56 µM [rising, partial curve] | – |
| CN1CCCN(C(c2ccccc2)c2ccc(Cl)cc2)CC1 (stereo not drawn) | inconclusive: 26.8 µM [cytotoxic, single point] | – |
| O=c1[nH]sc2cc(Cl)ccc12 | inconclusive: 26.8 µM [cytotoxic, single point] | – |
| CCCC/C=C/CCCCO | – | inactive: 7.03% |
| CCC(=O)O[C@H]1[C@H](O[C@@H]2[C@@H](C)[C@H](O[C@H]3C[C@@](C)(OC)[C@@H](O)[C@H](C)O3)[C@@H](C)C(=O)O[C@H](CC)[C@@](C)(O)[C@H](O)[C@@H](C)C(=O)[C@H](C)C[C@@]2(C)O)O[C@H](C)C[C@@H]1N(C)C | inconclusive: 14.5 µM [cytotoxic, partial curve, poor fit] | – |
| CCCCC(CC)C(=O)OCCOCCOCCOC(=O)C(CC)CCCC (stereo not drawn) | inconclusive: 22.1 µM [cytotoxic, partial curve] and inconclusive: 34.7 µM [cytotoxic, partial curve] | – |
| COc1ccccc1N1CCN(CCCCNC(=O)c2ccc(-c3ccc(C(C)=O)cc3)cc2)CC1 | active: 1.69 µM | – |
| CCN(CC)CCOc1ccc(Cc2ccccc2)cc1 | inconclusive: 21.3 µM [cytotoxic, partial curve, poor fit] | – |
| CC(=O)Oc1ccc2c(c1)CC[C@@H]1[C@@H]2CC[C@]2(C)[C@@H](O)CC[C@@H]12 | inconclusive: 10.7 µM [cytotoxic, partial curve] | – |
| CCCCCCCCCCCCCOS(=O)(=O)O | – | inactive: -6.87% |
| Cc1cc2c(OCC(CNC(C)(C)C)OC(=O)c3ccccc3)cccc2[nH]1 (stereo not drawn) | inconclusive: 13.4 µM [cytotoxic, full curve, poor fit] | – |
| c1ccc(CCCc2ccncc2)cc1 | inconclusive: 11 µM [cytotoxic, full curve] | – |
| CN(C/C=C/c1ccccc1)Cc1cccc2ccccc12 | inconclusive: 21.3 µM [cytotoxic, partial curve, poor fit] | – |
| COCCOc1cc2cc(C(=O)NC3CCN(C(C)C)CC3)n(CC(=O)Nc3ccc(Cl)cn3)c2cn1 | inconclusive: 34.3 µM [cytotoxic, partial curve] | – |
| COc1ccccc1N1CCN(CC(O)COc2cccc3ccccc23)CC1 (stereo not drawn) | inconclusive: 26.8 µM [cytotoxic, partial curve] | – |
| C/C=C(/C(=C/C)c1ccc(O)cc1)c1ccc(O)cc1 | inconclusive: 16.9 µM [cytotoxic, partial curve] | – |
| C/C=C/C=C/COC(=O)C(C)C | inconclusive: 61.6 µM [cytotoxic, single point] | – |
| CCOC(=O)CC | – | inactive: 15.8% |
| CC(=O)CCC(=O)O | inactive | – |
| c1ccc(C(O[C@@H]2CCCN(CCc3ccc4c(c3)OCO4)C2)c2ccccc2)cc1 | inconclusive: 61.6 µM [cytotoxic, single point] | – |
| C[C@@H](O[C@H]1OCCN(Cc2n[nH]c(=O)[nH]2)[C@H]1c1ccc(F)cc1)c1cc(C(F)(F)F)cc(C(F)(F)F)c1 | active: 16.9 µM | – |
